# In the supplement of paper PMC8728848:
# Some of the results follow.
# B1: EEA (Euonymus europaeus) (protein)
# chain: MASTIIATGPTYRVYCRAAPNYNMIVGKGVAFLAPIDETNELQYWYKDDTYSYIKDEAGLPAFSLVNKATGLTLKHSNHHPVPVKLVTYNPNVVDESVLWSQADDRGDGYSAIRSLTNPASHLEAAPLNDWSYNGAIIMGGVWIDAYNQQWKIEPHTG
# How the values were obtained:
# Test in all cases: glycan array binding signal (z-score within array); higher = stronger binding
# Conditions in all cases: glycan notation: IUPAC condensed, linker removed
# [1] = biological target: Neu5Ac(a2-3)Gal(b1-3)GlcNAc(b1-2)Man(a1-3)[Neu5Ac(a2-3)Gal(b1-3)GlcNAc(b1-2)Man(a1-6)]Man(b1-4)GlcNAc(b1-4)GlcNAc
# How it was run: (§1)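 From the Consortium for Functional Glycomics database, 3228 arrays were curated, keeping only those whose protein sequence was available. Binding is given as a within-array Z-score averaged across arrays sharing a protein sequence and across linkers. Negative Z-scores can be read as non-binding.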
# [2] = biological target: Neu5Ac(a2-3)Gal(b1-3)GlcNAc(b1-3)Gal(b1-3)GlcNAc
# How it was run: as §1
# [3] = biological target: Neu5Ac(a2-3)Gal(b1-3)GlcNAc(b1-3)Gal(b1-4)GlcNAc
# How it was run: as §1
# [4] = biological target: Neu5Ac(a2-3)Gal(b1-3)GlcNAc(b1-3)GalNAc
# How it was run: as §1
# [5] = biological target: Neu5Ac(a2-3)Gal(b1-3)GlcNAc(b1-4)Gal(b1-4)Glc
# How it was run: as §1
# [6] = biological target: Neu5Ac(a2-3)Gal(b1-3)GlcNAc(b1-6)GalNAc
# How it was run: as §1
# [7] = biological target: Neu5Ac(a2-3)Gal(b1-3)GlcNAc6S
# How it was run: as §1
# [8] = biological target: Neu5Ac(a2-3)Gal(b1-3)[Fuc(a1-4)]GlcNAc
# How it was run: as §1
# [9] = biological target: Neu5Ac(a2-3)Gal(b1-3)[Fuc(a1-4)]GlcNAc(b1-3)Gal(b1-3)[Fuc(a1-4)]GlcNAc
# How it was run: as §1
# [10] = biological target: Neu5Ac(a2-3)Gal(b1-3)[Fuc(a1-4)]GlcNAc(b1-3)Gal(b1-4)[Fuc(a1-3)]GlcNAc
# How it was run: as §1
# [11] = biological target: Neu5Ac(a2-3)Gal(b1-3)[GlcNAc(b1-6)]GalNAc
# How it was run: as §1
# [12] = biological target: Neu5Ac(a2-3)Gal(b1-3)[Neu5Ac(a2-3)Gal(b1-4)]GlcNAc
# How it was run: as §1
# [13] = biological target: Neu5Ac(a2-3)Gal(b1-3)[Neu5Ac(a2-6)]GalNAc
# How it was run: as §1
# [14] = biological target: Neu5Ac(a2-3)Gal(b1-3)[Neu5Ac(a2-6)]GlcNAc(b1-3)[Fuc(a1-3)[Gal(b1-4)]GlcNAc(b1-6)]Gal(b1-4)Glc
# How it was run: as §1
# [15] = biological target: Neu5Ac(a2-3)Gal(b1-3)]Neu5Ac(a2-3)Gal(b1-4)]GlcNAc
# How it was run: as §1
# Neu5Ac(a2-3)Gal(b1-4)Glc = biological target: Neu5Ac(a2-3)Gal(b1-4)Glc
# How it was run: as §1
# [16] = biological target: Neu5Ac(a2-3)Gal(b1-4)GlcNAc
# How it was run: as §1
# [17] = biological target: Neu5Ac(a2-3)Gal(b1-4)GlcNAc(b1-2)Man
# How it was run: as §1
# [18] = biological target: Neu5Ac(a2-3)Gal(b1-4)GlcNAc(b1-2)Man(a1-3)[GlcNAc(b1-2)Man(b1-4)GlcNAc(b1-2)Man(a1-6)]Man(b1-4)GlcNAc(b1-4)GlcNAc
# How it was run: as §1
# [19] = biological target: Neu5Ac(a2-3)Gal(b1-4)GlcNAc(b1-2)Man(a1-3)[GlcNAc(b1-4)][Neu5Ac(a2-3)Gal(b1-4)GlcNAc(b1-2)Man(a1-6)]Man(b1-4)GlcNAc(b1-4)GlcNAc
# How it was run: as §1
# [20] = biological target: Neu5Ac(a2-3)Gal(b1-4)GlcNAc(b1-2)Man(a1-3)[Neu5Ac(a2-3)Gal(b1-4)GlcNAc(b1-2)Man(a1-6)]Man(b1-4)GlcNAc(b1-4)GlcNAc
# How it was run: as §1
# [21] = biological target: Neu5Ac(a2-3)Gal(b1-4)GlcNAc(b1-2)Man(a1-3)[Neu5Ac(a2-3)Gal(b1-4)GlcNAc(b1-2)Man(a1-6)]Man(b1-4)GlcNAc(b1-4)[Fuc(a1-6)]GlcNAc
# How it was run: as §1
# [22] = biological target: Neu5Ac(a2-3)Gal(b1-4)GlcNAc(b1-2)Man(a1-3)[Neu5Ac(a2-6)Gal(b1-4)GlcNAc(b1-2)Man(a1-6)]Man(b1-4)GlcNAc(b1-4)GlcNAc
# How it was run: as §1
# [23] = biological target: Neu5Ac(a2-3)Gal(b1-4)GlcNAc(b1-2)[Neu5Ac(a2-3)Gal(b1-4)GlcNAc(b1-4)]Man(a1-3)[GlcNAc(b1-4)][Neu5Ac(a2-3)Gal(b1-4)GlcNAc(b1-2)[Neu5Ac(a2-3)Gal(b1-4)GlcNAc(b1-6)]Man(a1-6)]Man(b1-4)GlcNAc(b1-4)GlcNAc
# How it was run: as §1
# [24] = biological target: Neu5Ac(a2-3)Gal(b1-4)GlcNAc(b1-2)[Neu5Ac(a2-3)Gal(b1-4)GlcNAc(b1-4)]Man(a1-3)[GlcNAc(b1-4)][Neu5Ac(a2-3)Gal(b1-4)GlcNAc(b1-4)Man(a1-6)]Man(b1-4)GlcNAc(b1-4)GlcNAc
# How it was run: as §1
# [25] = biological target: Neu5Ac(a2-3)Gal(b1-4)GlcNAc(b1-2)[Neu5Ac(a2-3)Gal(b1-4)GlcNAc(b1-6)]Man(a1-6)[Neu5Ac(a2-3)Gal(b1-4)GlcNAc(b1-2)Man(a1-3)]Man(b1-4)GlcNAc(b1-4)GlcNAc
# How it was run: as §1
# [26] = biological target: Neu5Ac(a2-3)Gal(b1-4)GlcNAc(b1-2)[Neu5Ac(a2-3)Gal(b1-4)GlcNAc(b1-6)]Man(a1-6)[Neu5Ac(a2-3)Gal(b1-4)GlcNAc(b1-2)Man(a1-3)][GlcNAc(b1-4)]Man(b1-4)GlcNAc(b1-4)GlcNAc
# How it was run: as §1
# [27] = biological target: Neu5Ac(a2-3)Gal(b1-4)GlcNAc(b1-3)Gal
# How it was run: as §1
# [28] = biological target: Neu5Ac(a2-3)Gal(b1-4)GlcNAc(b1-3)Gal(b1-3)GlcNAc
# How it was run: as §1
# [29] = biological target: Neu5Ac(a2-3)Gal(b1-4)GlcNAc(b1-3)Gal(b1-4)GlcNAc
# How it was run: as §1
# [30] = biological target: Neu5Ac(a2-3)Gal(b1-4)GlcNAc(b1-3)Gal(b1-4)GlcNAc(b1-2)Man(a1-3)[Neu5Ac(a2-3)Gal(b1-4)GlcNAc(b1-3)Gal(b1-4)GlcNAc(b1-2)Man(a1-6)]Man(b1-4)GlcNAc(b1-4)GlcNAc
# How it was run: as §1
# [31] = biological target: Neu5Ac(a2-3)Gal(b1-4)GlcNAc(b1-3)Gal(b1-4)GlcNAc(b1-3)Gal(b1-4)GlcNAc
# How it was run: as §1
# [32] = biological target: Neu5Ac(a2-3)Gal(b1-4)GlcNAc(b1-3)Gal(b1-4)GlcNAc(b1-3)Gal(b1-4)GlcNAc(b1-2)Man(a1-3)[Neu5Ac(a2-3)Gal(b1-4)GlcNAc(b1-3)Gal(b1-4)GlcNAc(b1-3)Gal(b1-4)GlcNAc(b1-2)Man(a1-6)]GalNAc
# How it was run: as §1
# [33] = biological target: Neu5Ac(a2-3)Gal(b1-4)GlcNAc(b1-3)Gal(b1-4)GlcNAc(b1-3)GalNAc
# How it was run: as §1
# [34] = biological target: Neu5Ac(a2-3)Gal(b1-4)GlcNAc(b1-3)Gal(b1-4)GlcNAc(b1-3)[Neu5Ac(a2-3)Gal(b1-4)GlcNAc(b1-3)Gal(b1-4)GlcNAc(b1-6)]GalNAc
# How it was run: as §1
# [35] = biological target: Neu5Ac(a2-3)Gal(b1-4)GlcNAc(b1-3)Gal(b1-4)GlcNAc(b1-6)[Gal(b1-3)]GalNAc
# How it was run: as §1
# [36] = biological target: Neu5Ac(a2-3)Gal(b1-4)GlcNAc(b1-3)Gal(b1-4)[Fuc(a1-3)]GlcNAc
# How it was run: as §1
# [37] = biological target: Neu5Ac(a2-3)Gal(b1-4)GlcNAc(b1-3)GalNAc
# How it was run: as §1
# [38] = biological target: Neu5Ac(a2-3)Gal(b1-4)GlcNAc(b1-3)[Neu5Ac(a2-3)Gal(b1-4)GlcNAc(b1-6)]GalNAc
# How it was run: as §1
# [39] = biological target: Neu5Ac(a2-3)Gal(b1-4)GlcNAc(b1-6)GalNAc
# How it was run: as §1
# [40] = biological target: Neu5Ac(a2-3)Gal(b1-4)GlcNAc(b1-6)[Gal(b1-3)]GalNAc
# How it was run: as §1
# [41] = biological target: Neu5Ac(a2-3)Gal(b1-4)GlcNAc(b1-6)[Neu5Ac(a2-3)Gal(b1-3)]GalNAc
# How it was run: as §1
# [42] = biological target: Neu5Ac(a2-3)Gal(b1-4)GlcNAc6S
# How it was run: as §1
# [43] = biological target: Neu5Ac(a2-3)Gal(b1-4)[Fuc(a1-3)]GlcNAc
# How it was run: as §1
# [44] = biological target: Neu5Ac(a2-3)Gal(b1-4)[Fuc(a1-3)]GlcNAc(b1-2)Man
# How it was run: as §1
binder,measurement,setting,value
B1,glycan array binding signal (z-score),[1],-0.131
same,glycan array binding signal (z-score),[2],-0.181
same,glycan array binding signal (z-score),[3],-0.156
same,glycan array binding signal (z-score),[4],-0.099
same,glycan array binding signal (z-score),[5],-0.192
same,glycan array binding signal (z-score),[6],-0.187
same,glycan array binding signal (z-score),[7],-0.092
same,glycan array binding signal (z-score),[8],-0.255
same,glycan array binding signal (z-score),[9],-0.246
same,glycan array binding signal (z-score),[10],-0.228
same,glycan array binding signal (z-score),[11],-0.244
same,glycan array binding signal (z-score),[12],-0.202
same,glycan array binding signal (z-score),[13],-0.2
same,glycan array binding signal (z-score),[14],-0.285
same,glycan array binding signal (z-score),[15],-0.268
same,glycan array binding signal (z-score),Neu5Ac(a2-3)Gal(b1-4)Glc,-0.124
same,glycan array binding signal (z-score),[16],-0.24
same,glycan array binding signal (z-score),[17],-0.18
same,glycan array binding signal (z-score),[18],-0.231
same,glycan array binding signal (z-score),[19],-0.266
same,glycan array binding signal (z-score),[20],-0.22
same,glycan array binding signal (z-score),[21],-0.166
same,glycan array binding signal (z-score),[22],-0.239
same,glycan array binding signal (z-score),[23],-0.275
same,glycan array binding signal (z-score),[24],-0.274
same,glycan array binding signal (z-score),[25],-0.137
same,glycan array binding signal (z-score),[26],-0.26
same,glycan array binding signal (z-score),[27],-0.197
same,glycan array binding signal (z-score),[28],-0.196
same,glycan array binding signal (z-score),[29],-0.188
same,glycan array binding signal (z-score),[30],0.67
same,glycan array binding signal (z-score),[31],-0.14
same,glycan array binding signal (z-score),[32],1.19
same,glycan array binding signal (z-score),[33],-0.231
same,glycan array binding signal (z-score),[34],0.105
same,glycan array binding signal (z-score),[35],0.122
same,glycan array binding signal (z-score),[36],-0.184
same,glycan array binding signal (z-score),[37],-0.202
same,glycan array binding signal (z-score),[38],-0.197
same,glycan array binding signal (z-score),[39],-0.205
same,glycan array binding signal (z-score),[40],-0.15
same,glycan array binding signal (z-score),[41],-0.219
same,glycan array binding signal (z-score),[42],-0.245
same,glycan array binding signal (z-score),[43],-0.193
same,glycan array binding signal (z-score),[44],-0.256
